The assay concerns healthy male volunteers. Description: Reaction Time Test (psychomotor performance) of the RTTET in mentally fatigued men. To be noted: relative to placebo, 9 p.m., midnight and 3 a.m. tests, ETA 1600 ng intranasal, caffeine 400 mg oral. It counts as in vivo, human.

As for `CC(=O)Oc1ccc2c(c1)CC[C@@H]1[C@@H]2CC[C@]2(C)C=CC[C@@H]12` [ETA, 1,3,5(10),16-Estratetraen-3-yl acetate], the reaction time entry (isochronous stimuli) was “significantly decrease” and the reaction time entry (stochastic stimuli) is “significantly decrease”.

Consider `Cn1c(=O)c2c(ncn2C)n(C)c1=O` [caffeine, reference compound], for which the reaction time result is “significantly decrease” (isochronous stimuli) and “significantly decrease” (stochastic stimuli).
